Experimental data taken from PMC4336329 (PLoS ONE, 2015).
Screen size: about 310,000 compounds; about 14,000 (4.5%) showed an effect of 50% or more. The effect is printed as a negative number. The list shows a part of the results.

Target: human ether-à-go-go-related gene (hERG) potassium channel (human, UniProt Q12809)
Assay: primary screen, population patch clamp on CHO cells stably expressing hERG
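Further: peak tail current of the secondary pulse compared with the same well before compound.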

Chain of human ether-à-go-go-related gene (hERG) potassium channel (Q12809 whole entry, looked up): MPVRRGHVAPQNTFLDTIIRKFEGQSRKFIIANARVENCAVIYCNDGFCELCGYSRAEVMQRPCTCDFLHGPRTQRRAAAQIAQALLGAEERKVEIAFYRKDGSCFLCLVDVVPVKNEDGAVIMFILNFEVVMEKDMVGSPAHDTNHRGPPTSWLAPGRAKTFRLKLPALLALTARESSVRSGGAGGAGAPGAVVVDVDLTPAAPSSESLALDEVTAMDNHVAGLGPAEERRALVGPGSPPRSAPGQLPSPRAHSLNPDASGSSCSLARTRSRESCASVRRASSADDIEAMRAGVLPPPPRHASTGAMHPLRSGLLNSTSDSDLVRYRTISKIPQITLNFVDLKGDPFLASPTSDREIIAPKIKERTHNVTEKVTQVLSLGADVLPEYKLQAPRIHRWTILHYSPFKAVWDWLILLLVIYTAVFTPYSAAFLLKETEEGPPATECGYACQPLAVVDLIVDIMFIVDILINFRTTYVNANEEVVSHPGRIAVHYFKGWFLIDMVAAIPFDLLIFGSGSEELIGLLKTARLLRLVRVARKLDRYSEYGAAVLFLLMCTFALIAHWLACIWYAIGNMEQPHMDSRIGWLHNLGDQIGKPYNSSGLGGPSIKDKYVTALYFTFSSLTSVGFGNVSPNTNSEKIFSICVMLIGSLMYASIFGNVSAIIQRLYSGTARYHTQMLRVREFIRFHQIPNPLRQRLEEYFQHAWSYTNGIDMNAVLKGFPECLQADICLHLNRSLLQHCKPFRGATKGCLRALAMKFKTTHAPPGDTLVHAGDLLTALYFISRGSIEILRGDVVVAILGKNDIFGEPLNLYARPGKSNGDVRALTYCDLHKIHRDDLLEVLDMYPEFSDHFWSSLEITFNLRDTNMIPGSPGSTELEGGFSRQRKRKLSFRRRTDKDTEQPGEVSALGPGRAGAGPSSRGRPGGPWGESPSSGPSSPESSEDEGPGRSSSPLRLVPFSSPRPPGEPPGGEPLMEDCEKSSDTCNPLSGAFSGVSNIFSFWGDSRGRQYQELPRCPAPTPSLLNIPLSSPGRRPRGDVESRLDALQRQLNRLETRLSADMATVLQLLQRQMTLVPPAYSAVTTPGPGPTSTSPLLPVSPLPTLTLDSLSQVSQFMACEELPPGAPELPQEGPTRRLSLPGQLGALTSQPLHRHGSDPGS

Structure (SMILES) | hERG current change (%, negative = inhibition) at 10uM
COc1ccc(NC(=O)c2sc3nc(C)nc(N4CCN(c5ccccn5)CC4)c3c2C)cc1Cl | -3.04%
CCN(CC)Cc1c(C(=O)OC)nnn1-c1nonc1N | 11.4%
COC(=O)c1ccc(NC(=O)CSc2nnc(CNc3ccc(OC)cc3)n2C)cc1 | 9.62%
C[C@H](CCCC/C=C/C(=O)O)O[C@@H]1O[C@@H](C)[C@H](O)C[C@H]1O | 11.1%
CCN1CCN(CCNC(=O)c2ccc3c(c2)N(Cc2ccc(F)cc2)C(=O)/C(=C/c2ccccc2)S3)CC1 | -42.7%
NC(=O)CC(NC(=O)Cc1ccc(Br)cc1)c1ccc(N2CCN(c3ccc(F)cc3)CC2)c([N+](=O)[O-])c1 (stereo not shown) | -1.81%
CC1=NN2C(=N)/C(=C\c3cc(C)n(-c4ccccc4)c3C)C(=O)N=C2S1 | 15.5%
CCC(C)c1ccc(-c2cc(C(=O)OCC(=O)Nc3cc(C)on3)c3ccccc3n2)cc1 (stereo not shown) | 8.08%
CC(=O)Nc1ccc(NCN2C(=O)[C@@H]3[C@H]4CC[C@H](C4)[C@@H]3C2=O)cc1 | 0.927%
CCCCOc1ccc(NC(=O)CSc2cccc3cccnc23)cc1 | -6.47%
COC(=O)c1ccc(Cn2nc(C(F)(F)F)cc2C)cc1 | 2.14%
CCN1CCCC1CNCc1cccc(OC)c1OCc1ccc(F)cc1.Cl (stereo not shown) | -69.5%
CCOC(=O)c1sc(-c2ccccc2)cc1NC(=O)c1ccc(S(=O)(=O)N(CCOC)CCOC)cc1 | 4.24%
CCOC(=O)C1=C(COC(=O)c2cc(Br)c(Br)s2)NC(=O)NC1C (stereo not shown) | -3.78%
CCCNC(=O)CS(=O)(=O)c1ccccc1 | 2.32%
CCn1nc(C)c(/C=N/NC(=S)Nc2ccc(Cl)cc2Cl)c1C | -0.726%
COc1ccc(CC(=O)N/N=C/c2sccc2C)cc1 | 10.7%
CC(=O)OC(C(=O)NCCc1ccccc1)c1cccnc1 (stereo not shown) | 0.852%
CCOC(=O)c1ccc(NC(=S)NNC(=O)COC)cc1 | -2.29%
COc1ccccc1N1CCN(/N=C/C=C/c2ccccc2[N+](=O)[O-])CC1 | 8.53%
COc1ccccc1-c1cc(N)n(S(=O)(=O)c2cccc3nsnc23)n1 | -6.58%
CC(=O)Oc1cccc(N2C(=O)c3cccc4c([N+](=O)[O-])ccc(c34)C2=O)c1 | 9.47%

Structure (SMILES) | hERG current change (%, negative = inhibition) at 10uM
O=S(=O)(Nc1ccc2ccccc2c1)c1ccccc1 | 1.5%
CCc1cc(=O)oc2cc(C)cc(OCC(=O)NCCCn3ccnc3)c12 | -55.3%
CCOC(=O)/C(C#N)=C1\C(=O)N(Cc2ccccc2)c2ccccc21 | 14.4%
COCCNC(=O)c1ccc(N2CC3CC(C2)c2cccc(=O)n2C3)c(NC(=O)c2cc(OC)cc(OC)c2)c1 (stereo not shown) | 25.9%
CCC1CCCCN1S(=O)(=O)c1ccc(NC(=O)c2cccnc2)cc1 (stereo not shown) | -26.8%
CCCCn1nnc(NC(=O)c2ccc(-c3cccc(Cl)c3)o2)n1 | -40.8%
Cc1ccc(C)c(N2CCN(C(=O)C3CCCCN3S(=O)(=O)c3ccc(F)cc3)CC2)c1 (stereo not shown) | -4.92%
O=S(=O)(c1ccc(N2CCCC2)nc1)N1CCOCC1 | -8.57%
Cc1cccc(C(=O)Nc2ccccc2N2CCN(c3ccc(F)cc3)CC2)c1 | 7.68%
Cc1ccccc1-[n+]1c(-c2ccccc2)cc(-c2ccccc2)cc1-c1ccccc1.[O-][Cl+3]([O-])([O-])[O-] | -76.3%
CCc1ccc(C(=O)c2ccccc2C(=O)O)s1 | 26.6%
CSc1nc2c(c(=O)[nH]1)C(c1ccccc1Cl)CC(=O)N2 (stereo not shown) | 12.8%
COc1cc2c(cc1OC)C(SC)=NC(C)(C)C2 | -5.27%
N=C1C(=O)OCC1c1cc(Cl)ccc1NC(=O)Nc1ccccc1 (stereo not shown) | 7.25%
COc1ccc(NC(=O)c2cccc(OS(=O)(=O)N(C)C)c2)cc1 | -0.332%
COC(=O)c1sccc1NC(=O)Cn1nnc(-c2ccccc2C)n1 | -5.02%
CCOc1ccc(NC(=O)C/C(C)=N/NC(=O)Cc2ccc(Cl)cc2)cc1 | 5.53%
COc1ccc(-n2c(=O)[nH]cc(C(=O)N3CCc4ccccc43)c2=O)cc1 | 16.2%
O=C(NC(=O)N1CCN(c2ccc([N+](=O)[O-])cn2)CC1)c1c(Cl)cccc1Cl | 8.86%
COc1ccccc1OCC(=O)Nc1ccccc1C(=O)NCc1cccnc1 | -26.5%
Cc1cccc(C)c1NC(=O)CN(C)C(C)C(=O)NCC(=O)Nc1ccc(F)c(F)c1F (stereo not shown) | -1.83%
CCOC(=O)COc1ccc(C)cc1-c1ccno1 | -19.9%

Structure (SMILES) | hERG current change (%, negative = inhibition) at 10uM
COc1cc(C(=O)OCC(=O)c2ccccc2)cc2c1OCCO2 | 5.28%
COc1ccc(OCCOCCN2CCN(C)CC2)cc1.O=C(O)C(=O)O | -6.29%
CCCCCn1c(=O)c(C(=O)NCc2ccco2)c(O)c2ccccc21 | 15.2%
CCOc1ccc(C(=O)NCc2ccccc2)cc1Br | -23.6%
CC1Cc2nc(SCC(=O)NCC3CCCO3)n(-c3ccc(F)cc3)c(=O)c2S1 (stereo not shown) | -14.5%
O=S(=O)(N1CCOCC1)n1c(Cc2ccccc2)nc2ccccc21 | -28.9%
CCC(=O)NC(NC(=S)Nc1ccccc1Br)C(Cl)(Cl)Cl (stereo not shown) | 18.2%
O=c1c(-c2ccc(F)cc2)coc2c3c(ccc12)OCCO3 | -2.89%
CCCNC(=O)NC1CCCCCCC1 | 14.1%
CC(C)(O)c1cc2ccc(C#Cc3ccsc3)cc2c(=O)o1 | -4.22%
Cc1cc(C(=O)NC(CC(C)C)C(=O)O)cc(C)c1[N+](=O)[O-] (stereo not shown) | 12.3%
COc1ccc2c(c1)sc1nc(=O)ccn12 | 3.21%
COc1ccc(CNC(=O)C2CCCN(S(=O)(=O)c3ccc(Br)s3)C2)cc1 (stereo not shown) | 6.42%
O=C(CN1CCN(S(=O)(=O)c2ccccc2)CC1)NCCc1ccccc1 | 11.1%
CCNC(=O)NNC(=O)C1CC(c2cccs2)=NO1 (stereo not shown) | 17.3%
CCOC(=O)C(=O)N1c2ccccc2C(N(C(=O)C(=O)OCC)c2ccccc2)CC1C (stereo not shown) | -1.14%
CNC(=O)CSc1nnc(-c2ccco2)n1-c1cc(C)ccc1C | -2.95%
O=C(CN(C(=O)CCC(=O)Nc1ccccn1)c1ccc2c(c1)OCCO2)NCCc1ccccc1 | 2.29%
CCCN(CCC)c1ccc(CC(=O)NC(C)Cc2ccccc2)cc1 (stereo not shown) | -10%
COc1ccc(C(=O)c2c(C(F)(F)F)oc3c2C(=O)c2ccccc2C3=O)cc1 | 1.85%
CCOC(=O)NC(Nc1cc(C)ccn1)(C(F)(F)F)C(F)(F)F | 13.6%
Cc1cccc(Oc2nccc(C(F)(F)F)c2C(=O)Nc2ccc(F)cc2F)c1 | 4.35%

Structure (SMILES) | hERG current change (%, negative = inhibition) at 10uM
CC(C)NC(=O)CSc1nc2[nH]ncc2c(=O)[nH]1 | 15.6%
COC(=O)Cc1ccc(NC(=S)NC(C)(C)C)cc1 | 34.3%
CN1C(=O)CC(Nc2cccc3cccc(N)c23)C1=O (stereo not shown) | 0.686%
CC(=O)c1cccc(NC(=O)NNC(=O)c2ccc(-c3ccccc3)cc2)c1 | 10.7%
CC(=O)N1CCOc2ccc(S(=O)(=O)Nc3cccc(C)c3)cc21 | 0.427%
CCN1CCN(CCCNC(=O)c2ccc3c(c2)NC(=O)c2ccccc2S3)CC1 | -2.73%
CCOC(=O)C(Sc1n[nH]c(N)n1)c1ccccc1 (stereo not shown) | 11.3%
Nc1ccnn1Cc1cccs1 | -0.225%
Cc1c(-c2ccccc2)sc2nc[nH]c(=S)c12 | 11.2%
C=CCNc1nc(N2CCOCC2)c(C#N)c2c1CN(C)CC2 | -14.1%
O=C(NCCOc1ccccc1Cl)C(=O)c1c[nH]c2ccccc12 | 13.9%
O=C(N/N=C/c1c(F)c(F)c(F)c(F)c1F)c1cccc(S(=O)(=O)N2CCOCC2)c1 | 22.1%
O=C(NC1CCCCC1)c1c2c(nc3ccccc13)CCC2 | 20.9%
O=C(NCCc1c[nH]c2ccccc12)C(=O)NCC1CCCO1 (stereo not shown) | 31%
Cc1ccc(NC(=S)N2CCCC2)cc1C | 21.2%
CC(C)(C)OC(=O)NCc1ccc(CNC(=O)c2nc[nH]c2C(=O)N2CCN(C(=O)OC(C)(C)C)CC2)cc1 | -9.67%
COc1ccc(C(=O)CSC#N)cc1OC | 13.3%
O=C(NN=C1c2ccccc2-c2ccccc21)c1cccc(Br)c1 | 26.9%
COc1cccc(CC2(CO)CCN(Cc3ccc(NC(C)=O)cc3)CC2)c1 | -50.7%
Cc1ccc2nc(C)cc(Nc3ccc4c(c3)OCCO4)c2c1.Cl | -58.2%
O=C(CN(c1cccc(C(F)(F)F)c1)S(=O)(=O)c1ccc(Cl)c([N+](=O)[O-])c1)NCc1ccc(F)cc1 | 8.84%
C[CH2][Hg][S]c1ccccc1C(=O)[O-].[Na+] | 13.8%
